No constants are given. Whether binding was seen depends on the method and setting. Binding seen in cells or lysates may run through a third protein. Some entries that bind do so weakly or less than the wild type. Sequences can lack the tags named with a protein.

The chains behind the UniProt entries cited, without tags or fusion partners.
UniProt P35637: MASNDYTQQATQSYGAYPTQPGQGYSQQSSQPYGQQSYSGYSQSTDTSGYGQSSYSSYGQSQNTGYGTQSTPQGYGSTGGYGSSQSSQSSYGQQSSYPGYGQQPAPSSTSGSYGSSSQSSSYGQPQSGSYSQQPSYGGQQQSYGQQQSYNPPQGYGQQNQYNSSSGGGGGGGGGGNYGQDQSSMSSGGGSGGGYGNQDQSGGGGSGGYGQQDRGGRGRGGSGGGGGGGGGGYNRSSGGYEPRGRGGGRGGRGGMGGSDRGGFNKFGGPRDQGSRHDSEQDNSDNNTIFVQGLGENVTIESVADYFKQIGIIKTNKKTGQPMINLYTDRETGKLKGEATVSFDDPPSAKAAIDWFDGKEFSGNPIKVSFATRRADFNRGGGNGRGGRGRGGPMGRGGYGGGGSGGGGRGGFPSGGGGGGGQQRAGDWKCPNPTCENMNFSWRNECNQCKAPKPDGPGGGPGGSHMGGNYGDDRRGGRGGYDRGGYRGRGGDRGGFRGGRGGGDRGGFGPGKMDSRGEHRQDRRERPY

The text below walks through data of publication PMC6593535.

Holding throughout (assay): co-IP; HEK293T co-expressing Flag-FUS and the indicated HA-AFF4 proteins; lysis in 0.15% Triton X-100, 20 mM Tris-HCl pH 7.6, 200 mM NaCl, 0.72 mM EDTA, 10% glycerol, 1 mM DTT; IP with anti-HA antibody overnight; western blot with anti-Flag
In general terms: A western blot detects proteins with antibodies after separation by electrophoresis.

In one assay the target is T1, HA-AFF4 (1–400) (human) (UniProt Q9UHB7).
T1 sequence: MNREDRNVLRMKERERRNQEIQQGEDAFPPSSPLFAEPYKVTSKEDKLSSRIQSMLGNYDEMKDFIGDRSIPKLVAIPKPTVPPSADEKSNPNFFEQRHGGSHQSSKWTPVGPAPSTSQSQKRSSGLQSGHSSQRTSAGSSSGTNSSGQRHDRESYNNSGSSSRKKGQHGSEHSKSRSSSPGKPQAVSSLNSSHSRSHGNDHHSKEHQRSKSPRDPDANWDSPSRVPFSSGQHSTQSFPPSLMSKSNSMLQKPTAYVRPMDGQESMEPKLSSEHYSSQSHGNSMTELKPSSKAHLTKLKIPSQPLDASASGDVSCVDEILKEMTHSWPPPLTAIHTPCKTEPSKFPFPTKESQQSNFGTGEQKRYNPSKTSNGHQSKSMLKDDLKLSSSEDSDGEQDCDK

For another assay, the target named is T2, HA-AFF4 (1–650) (human) (UniProt Q9UHB7).
T2 sequence: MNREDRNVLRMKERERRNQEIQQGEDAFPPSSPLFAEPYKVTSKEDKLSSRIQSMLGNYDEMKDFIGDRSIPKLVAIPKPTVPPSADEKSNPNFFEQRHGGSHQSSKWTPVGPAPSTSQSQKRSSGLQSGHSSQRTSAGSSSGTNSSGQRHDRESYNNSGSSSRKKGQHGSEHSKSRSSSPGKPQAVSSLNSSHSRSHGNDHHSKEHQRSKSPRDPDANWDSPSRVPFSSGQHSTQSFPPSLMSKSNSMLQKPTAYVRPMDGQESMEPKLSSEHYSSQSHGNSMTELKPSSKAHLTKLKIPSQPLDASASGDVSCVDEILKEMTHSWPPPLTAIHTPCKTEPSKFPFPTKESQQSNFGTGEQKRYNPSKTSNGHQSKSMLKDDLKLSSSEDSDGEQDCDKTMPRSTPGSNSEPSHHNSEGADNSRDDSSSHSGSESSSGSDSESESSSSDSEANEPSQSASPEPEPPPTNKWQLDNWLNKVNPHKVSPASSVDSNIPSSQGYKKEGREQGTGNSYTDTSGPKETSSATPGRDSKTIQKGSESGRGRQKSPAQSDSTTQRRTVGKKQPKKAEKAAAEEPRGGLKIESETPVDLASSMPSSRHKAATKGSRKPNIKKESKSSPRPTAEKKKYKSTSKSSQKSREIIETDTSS

For a further assay, the target named is T3, HA-AFF4 (1–300) (human) (UniProt Q9UHB7).
T3 sequence: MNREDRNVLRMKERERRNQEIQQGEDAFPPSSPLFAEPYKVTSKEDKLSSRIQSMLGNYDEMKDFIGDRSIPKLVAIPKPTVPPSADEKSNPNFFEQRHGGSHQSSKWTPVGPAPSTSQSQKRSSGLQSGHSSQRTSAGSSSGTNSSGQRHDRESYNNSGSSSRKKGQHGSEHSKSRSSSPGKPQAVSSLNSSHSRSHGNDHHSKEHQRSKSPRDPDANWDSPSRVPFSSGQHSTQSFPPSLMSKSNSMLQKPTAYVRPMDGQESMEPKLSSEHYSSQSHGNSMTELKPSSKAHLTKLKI

Assay [1] has as its target T4, full length HA-AFF4 (1–1163) (human) (UniProt Q9UHB7).
T4 sequence: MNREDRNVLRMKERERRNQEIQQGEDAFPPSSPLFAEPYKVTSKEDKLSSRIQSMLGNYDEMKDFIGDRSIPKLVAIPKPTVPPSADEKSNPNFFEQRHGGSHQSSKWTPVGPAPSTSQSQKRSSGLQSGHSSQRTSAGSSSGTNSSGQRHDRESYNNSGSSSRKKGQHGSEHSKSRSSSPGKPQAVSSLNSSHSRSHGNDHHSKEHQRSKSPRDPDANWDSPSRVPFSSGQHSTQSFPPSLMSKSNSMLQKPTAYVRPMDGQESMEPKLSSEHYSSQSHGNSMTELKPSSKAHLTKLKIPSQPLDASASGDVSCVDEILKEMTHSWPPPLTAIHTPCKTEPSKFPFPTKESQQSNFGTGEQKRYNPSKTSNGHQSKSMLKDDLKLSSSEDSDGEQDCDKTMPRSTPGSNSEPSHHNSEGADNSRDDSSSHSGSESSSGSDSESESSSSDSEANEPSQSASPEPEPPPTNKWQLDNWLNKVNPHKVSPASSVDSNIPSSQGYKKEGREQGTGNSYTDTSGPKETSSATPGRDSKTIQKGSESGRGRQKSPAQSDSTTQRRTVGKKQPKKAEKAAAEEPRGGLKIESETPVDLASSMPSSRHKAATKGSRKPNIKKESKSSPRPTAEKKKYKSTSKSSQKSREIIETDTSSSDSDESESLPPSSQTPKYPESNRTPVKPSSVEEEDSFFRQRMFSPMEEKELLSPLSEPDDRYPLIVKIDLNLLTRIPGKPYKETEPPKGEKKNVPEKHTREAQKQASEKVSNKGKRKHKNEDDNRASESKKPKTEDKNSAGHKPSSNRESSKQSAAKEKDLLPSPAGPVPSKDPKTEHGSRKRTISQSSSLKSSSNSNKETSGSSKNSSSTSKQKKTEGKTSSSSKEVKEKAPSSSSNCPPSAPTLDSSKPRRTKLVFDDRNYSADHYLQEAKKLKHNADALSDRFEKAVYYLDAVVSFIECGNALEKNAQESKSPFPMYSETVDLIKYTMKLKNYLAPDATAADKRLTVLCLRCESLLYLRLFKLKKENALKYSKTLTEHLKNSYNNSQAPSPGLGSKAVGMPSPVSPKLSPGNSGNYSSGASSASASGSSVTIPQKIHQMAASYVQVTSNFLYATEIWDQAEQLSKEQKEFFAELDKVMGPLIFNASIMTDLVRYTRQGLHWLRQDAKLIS

In the next assay the target is T5, HA-AFF4 (1–850) (human) (UniProt Q9UHB7).
T5 sequence: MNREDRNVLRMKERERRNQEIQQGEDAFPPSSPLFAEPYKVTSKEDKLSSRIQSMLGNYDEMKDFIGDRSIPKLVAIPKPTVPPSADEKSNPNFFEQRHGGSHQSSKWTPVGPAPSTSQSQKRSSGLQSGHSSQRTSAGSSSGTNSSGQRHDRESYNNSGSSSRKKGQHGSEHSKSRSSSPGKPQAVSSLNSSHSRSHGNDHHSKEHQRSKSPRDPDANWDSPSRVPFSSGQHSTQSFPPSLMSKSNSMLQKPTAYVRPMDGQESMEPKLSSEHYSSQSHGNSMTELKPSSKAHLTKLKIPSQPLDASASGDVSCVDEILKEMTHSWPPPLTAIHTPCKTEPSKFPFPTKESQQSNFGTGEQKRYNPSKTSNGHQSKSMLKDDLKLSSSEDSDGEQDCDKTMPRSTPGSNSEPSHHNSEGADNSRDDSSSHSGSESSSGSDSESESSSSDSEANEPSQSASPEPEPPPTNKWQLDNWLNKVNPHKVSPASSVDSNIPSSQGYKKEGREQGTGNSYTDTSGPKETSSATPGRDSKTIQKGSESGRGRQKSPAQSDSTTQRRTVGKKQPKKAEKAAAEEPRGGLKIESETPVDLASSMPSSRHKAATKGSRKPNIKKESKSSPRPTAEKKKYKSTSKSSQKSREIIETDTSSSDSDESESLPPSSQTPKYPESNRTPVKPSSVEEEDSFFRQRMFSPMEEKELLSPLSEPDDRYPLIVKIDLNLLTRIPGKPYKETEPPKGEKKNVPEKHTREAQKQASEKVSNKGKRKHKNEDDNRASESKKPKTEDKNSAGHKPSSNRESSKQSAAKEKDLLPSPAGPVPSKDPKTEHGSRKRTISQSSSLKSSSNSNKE

In the case of Flag-FUS (from UniProt P35637 1-526), the binding result was “binds” in the assay with HA-AFF4 (1–400) (human); “binds” with HA-AFF4 (1–650) (human); “no binding” in the assay with HA-AFF4 (1–300) (human); “binds” in assay [1]; “binds” with HA-AFF4 (1–850) (human).
